In publication PMC10726135 one finds binding signal (log2 normalized intensity) data, which are given here for 72 sequences.

The other results are listed elsewhere or left out. At the low end of the ranking the order means little. The protein was read in a cell extract, so binding may be indirect.

The target in this experiment is T1, HNF4alpha8 (COS-7 nuclear extract) (UniProt P41235-5).
T1 sequence: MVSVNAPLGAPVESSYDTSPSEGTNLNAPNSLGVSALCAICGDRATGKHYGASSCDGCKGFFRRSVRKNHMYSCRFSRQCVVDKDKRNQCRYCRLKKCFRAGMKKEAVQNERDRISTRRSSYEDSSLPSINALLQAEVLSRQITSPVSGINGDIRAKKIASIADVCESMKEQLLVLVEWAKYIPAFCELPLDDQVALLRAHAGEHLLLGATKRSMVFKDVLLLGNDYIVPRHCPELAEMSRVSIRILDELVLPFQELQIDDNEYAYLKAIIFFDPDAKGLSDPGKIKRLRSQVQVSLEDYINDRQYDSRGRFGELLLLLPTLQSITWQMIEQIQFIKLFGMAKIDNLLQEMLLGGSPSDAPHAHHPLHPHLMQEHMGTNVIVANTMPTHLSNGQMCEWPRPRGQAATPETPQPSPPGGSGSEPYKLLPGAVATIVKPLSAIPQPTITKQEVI
Description: protein-binding microarray. The conditions noted are these: COS-7 nuclear extract on double-stranded Agilent 4x180k PBM; binding buffer, salt, pH and temperature not given; high values mean tight binding; double strand, one strand shown; sequences stand for … in …GCCTAGGGAGATTAGAGTATCGGTCGA
As for ATGATGGCCAGTTCAGCGCGTCTTAGCACT, the binding signal (log2 normalized intensity) was -1.3.

Consider TTGGTTTATGTTCACCTCAGCACTGAGATA, for which the binding signal (log2 normalized intensity) was -0.229.

Take CCTCTGCTGCGATCACCCAGGTCCAAGTCA: the binding signal (log2 normalized intensity) came to 1.91.

Consider GGTTCACATTTTTGTCATCTTCACTTTTGT, for which the binding signal (log2 normalized intensity) turned out to be 1.64.

Consider AGAAGTATGACAACAAAGCATTATCTACAC, for which the binding signal (log2 normalized intensity) was -1.27.

On to AGGAAGTCGCTTGCCAGTATGCCACTGGTT, for which the binding signal (log2 normalized intensity) was -1.27.

Regarding TACAGTAATTAGACAACATCGAAGACTTCA, the binding signal (log2 normalized intensity) is -1.36.

In the case of TCTGATAAGGGTGTTTGTCCTTTGTTGCAA, the binding signal (log2 normalized intensity) was determined as 1.97.

On to AAATTTCCGTGTCGAAACTACAAACGGATA, for which the binding signal (log2 normalized intensity) is -1.25.

As for TGCCCTTGACTTTTTGTGGGGGCAGATGTT, the binding signal (log2 normalized intensity) is 2.31.

Take TGAAGATACTGGATAACCTTCCAGACAGAG: the binding signal (log2 normalized intensity) is -1.31.

With GTAAGTTCAAGAAGACCTTTGCTCCACGTT, the binding signal (log2 normalized intensity) was determined as 5.12.

On to GGACGTGGAATAGATCAGCTTTCAACACTC, for which the binding signal (log2 normalized intensity) is -1.26.

For the sequence CCTCCCTCCCCCTTTCTCCGCTAAGTGGCT, the binding signal (log2 normalized intensity) is 2.45.

Consider CAGAACAAAGTCCAGTAAGGACAGTTCCAG, for which the binding signal (log2 normalized intensity) was 3.12.

For TAAAGCTAACCAGCTCTATCAGTCTGGGTC, the binding signal (log2 normalized intensity) was -0.733.

As to GTAACCTTTGCCCCCCAAGTTGAAGCCATC, the binding signal (log2 normalized intensity) is 5.74.

For the sequence GAGTGCCTCCATTTCACAAATGAGGGGACA, the binding signal (log2 normalized intensity) was determined as 0.0214.

Regarding AAGGCATGCTTGGCATCCCTGTGGTATTTG, the binding signal (log2 normalized intensity) came out at 0.0799.

As to AAGCTGAAAACAAATATTTGCCTAGGATTC, the binding signal (log2 normalized intensity) was -1.21.

For TAAAAGGATCATGGAATTTAATTAGCTTCT, the binding signal (log2 normalized intensity) is -1.37.

Take CTGATGTGTTCGCCCCTAGGACACGCAGTT: the binding signal (log2 normalized intensity) is 1.14.

GCAGAATCAAAGGTCAAAATATCTGATCGA: the binding signal (log2 normalized intensity) came out at 3.79.

On to TCACCTAACCACATTCTTTCTGCATCGCAG, for which the binding signal (log2 normalized intensity) was -1.2.

TTTTCCCTTCTGTTAGAATGTATTGAGAAG: the binding signal (log2 normalized intensity) is 0.754.

As for AACCAAGGGTACACACCGTTAGCCAATATT, the binding signal (log2 normalized intensity) was -1.08.

For the sequence GGCCTCTTCCCCAAACTAGGAGAGTGGACT, the binding signal (log2 normalized intensity) came out at 2.98.

Turning to CAGGGTCAGAGGTCGCGAGGGAGAGCCCTA, the binding signal (log2 normalized intensity) turned out to be 3.65.

For AGGACTTATCCTTGGGACATTCTCACATTA, the binding signal (log2 normalized intensity) amounted to 0.368.

GACCGTCCCTGGGTACAACTTTATCTAAGG: the binding signal (log2 normalized intensity) worked out at 0.636.

As to GGAATGCGGGCTCCACCACTTGCTCACGAA, the binding signal (log2 normalized intensity) is -1.23.

With CAATTGCCCTACAGCTCCTGAGTCCACATG, the binding signal (log2 normalized intensity) came out at 1.98.

Consider CAGCTGTCGTGTGAATAGCACTGACCAGCT, for which the binding signal (log2 normalized intensity) worked out at 0.27.

Consider ACCGTAAATGCATTATTGCACTGTGCTTTG, for which the binding signal (log2 normalized intensity) is 1.3.

On to AATACTGTGCAAATCCCCGCCTTTGACACA, for which the binding signal (log2 normalized intensity) was 1.95.

Turning to TTACGGGGTGGTTTATCTGCCTGTGGATAG, the binding signal (log2 normalized intensity) was 1.17.

For the sequence TTTCCCCGTCCCAAGCTGAGGTCTGGTGTC, the binding signal (log2 normalized intensity) came out at 2.83.

As to GGAAGGATAAGAGCAAGAAACAGCAAATGC, the binding signal (log2 normalized intensity) was -1.36.

In the case of ATAGGAAAAGGGAGTTTTCTGCTCTCAACT, the binding signal (log2 normalized intensity) was -1.33.

On to CAGCTTTCTTTTCCAACCATTGACACTCCT, for which the binding signal (log2 normalized intensity) was 1.17.

In the case of AAGCAAGACAATGCACTCATAACTAGGGTT, the binding signal (log2 normalized intensity) is -1.13.

For the sequence CCCGGACCCTGACTCTGCAGCCGAACCGGC, the binding signal (log2 normalized intensity) is -1.27.

As for GCTGGAATTTGAACCCAAGCAATCTGGCTG, the binding signal (log2 normalized intensity) came to 3.42.

As to TAGAAAACAAGTTAGACAGTGCCTATGTTG, the binding signal (log2 normalized intensity) is -1.13.

Turning to CTGGATGGTGTTTGATCTGATGTACCCAGC, the binding signal (log2 normalized intensity) is 2.18.

Take TATATGAGGAAGGGTGTGTAAAACAGGTGA: the binding signal (log2 normalized intensity) amounted to 0.654.

With GGTATGAGGCCAGTTTTCCTAAGGGGCTTT, the binding signal (log2 normalized intensity) is -1.25.

In the case of GAGATCTGAATGGAATGAAGATACTGGATA, the binding signal (log2 normalized intensity) was -1.32.

Take CTATGACCTTTCACCTTTTAGCTTGGCATG: the binding signal (log2 normalized intensity) was 5.08.

TGCTCCACCCTTCTATCCCCTTATCTAAAT: the binding signal (log2 normalized intensity) was found to be 2.58.

GAGGTGACGGCTAAGAGAAATCCACACAGC: the binding signal (log2 normalized intensity) is -1.39.

Regarding AGGTCATTCATGTGCAGGTTGGAATATGTG, the binding signal (log2 normalized intensity) came to 2.39.

On to CGCTGGGGAAGAGTGTGACTGTGGTACTCC, for which the binding signal (log2 normalized intensity) was determined as 0.589.

Regarding AGTCTGCCTCTATGTGATCAGATGTGGACA, the binding signal (log2 normalized intensity) is 1.94.

For the sequence TCCACACAGCACTGACCTTTGAGAGTCAAC, the binding signal (log2 normalized intensity) was determined as 4.

As for TTCTTGAGGCATTTATTACAGAGAGGGGGA, the binding signal (log2 normalized intensity) is -1.27.

Regarding CAATAGCAAAACCTGATGTTTGGACAGTGT, the binding signal (log2 normalized intensity) amounted to 1.59.

For the sequence GACCAAGCAGCTGTTTGACCAAAGCTACTC, the binding signal (log2 normalized intensity) was -1.31.

With AGTTAGTTTACTTAGGCCTCCCAGAACGTG, the binding signal (log2 normalized intensity) came to 1.13.

Regarding GCTATCCCGGCCAACGGTCGGAAGGGAGGT, the binding signal (log2 normalized intensity) is -1.29.

Take CTTGGACTTTAACCTTTAGATTACTAGGAA: the binding signal (log2 normalized intensity) was 6.61.

Take GGGGCATAGCCCATGCAAATACTCGGTGAC: the binding signal (log2 normalized intensity) was -1.25.

Turning to GTATGCTATTAGTGGTTAAGTTTTCGAGGA, the binding signal (log2 normalized intensity) was 0.998.

Turning to TCCAAGGAACCTCACGCGCTCCCTGTTTAG, the binding signal (log2 normalized intensity) is -1.45.

TCACCACATCTCCCACTGTGGACTCTGAGC: the binding signal (log2 normalized intensity) came to 5.49.

Consider CCTGCGTCTTATATAAGCTATTACTTGATT, for which the binding signal (log2 normalized intensity) amounted to 0.397.

GGAACAACTTCGGGAATCTGACCTTTGGGA: the binding signal (log2 normalized intensity) worked out at 5.65.

As to GTGGCAGCATTGTGCTGAAAAGACTTCACA, the binding signal (log2 normalized intensity) is -1.34.

In the case of TGGGGAAGTCTCTAGATGGGGTTGAGCAGA, the binding signal (log2 normalized intensity) is -1.36.

For the sequence CTGAGGTTAAAGTCCACATTCTTTAGCATA, the binding signal (log2 normalized intensity) was determined as 6.12.

Take TTTTCCCGGTTTGTTCCATGCCACAGAATC: the binding signal (log2 normalized intensity) turned out to be 0.811.

In the case of TTCTCTGTGACCTTTGGAAGGTGGGGGAGG, the binding signal (log2 normalized intensity) came out at 4.92.
